Experimental data taken from PubChem BioAssay AID504339 (National Center for Advancing Translational Sciences (NCATS), 2011).
Out of some 390,000 compounds screened, about 17,000 (4.4%) were called active. The shares of active, inactive and inconclusive entries below differ from those in the screen. The call rests on the fitted dose curve; in most records, active means well fitted inhibition curve with a large enough effect; inconclusive means small, poorly fitted or top-dose-only effect; inactive means no such curve, though single readings can be large or run the other way. Potencies of inconclusive entries are doubtful fits and often do not repeat.

target: Lysine-specific demethylase 4A (Homo sapiens) (UniProt O75164); experiment: qHTS Assay for Inhibitors of JMJD2A-Tudor Domain; details: AlphaScreen JMJD2A-Tudor / H3K4me3 peptide binding; activity change, negative = inhibition: at 114 µM (top of the series); further: nearly all actives have a fitted effect of over 50% in size
On the % scale 0 is the no-effect control and ±100 the full control effect; potency means the concentration at half of the fitted maximal effect; tags describe the fitted curve by direction and shape.

UniProt O75164, sequence (O75164 whole entry, looked up, the tested form may be a part): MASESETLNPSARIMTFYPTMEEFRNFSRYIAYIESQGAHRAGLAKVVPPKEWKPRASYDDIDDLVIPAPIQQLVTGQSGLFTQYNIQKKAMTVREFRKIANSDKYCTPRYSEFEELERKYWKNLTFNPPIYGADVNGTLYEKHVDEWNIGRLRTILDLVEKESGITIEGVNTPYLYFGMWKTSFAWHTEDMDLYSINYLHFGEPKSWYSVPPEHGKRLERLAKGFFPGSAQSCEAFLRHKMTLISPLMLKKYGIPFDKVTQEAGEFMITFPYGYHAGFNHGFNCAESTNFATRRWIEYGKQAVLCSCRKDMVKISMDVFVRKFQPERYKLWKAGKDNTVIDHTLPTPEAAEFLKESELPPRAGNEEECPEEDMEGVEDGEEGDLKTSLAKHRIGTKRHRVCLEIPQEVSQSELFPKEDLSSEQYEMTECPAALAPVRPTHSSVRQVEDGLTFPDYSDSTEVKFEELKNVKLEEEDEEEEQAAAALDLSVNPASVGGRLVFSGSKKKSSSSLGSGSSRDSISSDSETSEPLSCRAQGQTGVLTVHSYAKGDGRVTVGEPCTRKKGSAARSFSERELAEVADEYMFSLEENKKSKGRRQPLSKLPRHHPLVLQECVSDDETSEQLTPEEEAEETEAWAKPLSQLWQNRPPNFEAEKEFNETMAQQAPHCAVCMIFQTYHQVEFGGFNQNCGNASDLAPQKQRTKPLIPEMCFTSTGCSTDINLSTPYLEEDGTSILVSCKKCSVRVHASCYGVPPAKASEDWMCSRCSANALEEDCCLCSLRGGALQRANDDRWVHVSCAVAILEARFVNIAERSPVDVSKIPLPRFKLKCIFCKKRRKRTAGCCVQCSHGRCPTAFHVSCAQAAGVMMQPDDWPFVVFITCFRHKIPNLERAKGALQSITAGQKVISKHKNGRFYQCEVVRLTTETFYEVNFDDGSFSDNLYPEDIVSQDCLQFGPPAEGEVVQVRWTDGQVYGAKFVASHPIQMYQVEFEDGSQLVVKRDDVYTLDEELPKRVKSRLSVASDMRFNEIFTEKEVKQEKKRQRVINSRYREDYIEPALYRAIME

Potency, active:
CN(CCO)c1ccc(C=NNc2ccc([N+](=O)[O-])cc2S(=O)(=O)Nc2ccccc2C(=O)O)cc1 44.7 µM
CC(C)(C)C1=Nn2c(nnc2-c2ccccn2)SC1 7.94 µM
CN(C)c1ccc(N=Nc2ccccc2C(=O)OCC(=O)N(C)c2ccccc2)cc1 12.6 µM
COc1ccc(C(=O)/C=C/c2ccc(N3CCCCC3)c([N+](=O)[O-])c2)cc1 11.2 µM
COc1ccc(CN(C(=O)c2ccc(-c3ccccc3)[nH]2)C(C(=O)NC(C)(C)C)c2ccncc2)cc1 (stereo unspecified) 39.8 µM
CN(C)c1ccc(C=c2c3cc(O)ccc3n3c2cc(-c2ccccc2)[n+]3C)cc1 25.1 µM
O=C(Nc1nc2ccsc2c(=O)s1)c1ccco1 35.5 µM
COc1ccc(N2CCN(CC(O)COc3ccccc3C(C)(C)C)CC2)cc1 (stereo unspecified) 22.4 µM
Cc1ccc(NCc2cccnc2)cc1 39.8 µM
CC(C)CCC(CCN1CCCC1)c1ccc2c(c1)OCO2 (stereo unspecified) 1.41 µM
O=c1[nH]c2ccc(N=Cc3c(O)ccc4cc(Br)ccc34)cc2[nH]1 44.7 µM
COC(=O)CCCCCN1C(=O)/C(=C\c2ccncc2)SC1=S 44.7 µM
CN(CCc1ccccn1)Cc1ccc(Cl)cc1Cl 20 µM
CCOC(=O)c1sc2cc([N+](=O)[O-])cc(SCC(=O)OC)c2c1N 44.7 µM

Potency, inconclusive:
CCCCCCCCNS(=O)(=O)CCNCc1ccco1 79.4 µM [inhibitor, partial curve]
CC/C(=C\C1CCCCC1)C(NP(=O)(c1ccccc1)c1ccccc1)c1ccccc1 (stereo unspecified) 50.1 µM [inhibitor, partial curve]
C#CCOCCOCCOCCNc1nc(N2CCN(C(=O)CCCCCCCCCCNC(=O)[C@H]([C@@H](C)CC)n3cc(CCCCCN)nn3)CC2)nc(N2CCN(C(=O)CCCCCCCCCCNC(=O)[C@H](CCCCN)n3cc(CCCC(=O)O)nn3)CC2)n1 44.7 µM [inhibitor, partial curve]
COc1ccc(N2CCN(S(=O)(=O)c3cc(C)ccc3OC)CC2)cc1 25.1 µM [inhibitor, partial curve]
O=C(OCC(=O)N1CCN(c2ccccc2)CC1)c1ccccc1NCCO 39.8 µM [inhibitor, single point]
Cc1c(NC(=S)NC(=O)C(c2ccccc2)c2ccccc2)cccc1C(=O)O 3.98 µM [inhibitor, partial curve, poor fit]
Cc1sc(NC(=O)C2CCCO2)c(C(N)=O)c1C (stereo unspecified) 100 µM [inhibitor, single point]
CCN1C(=O)/C(=C\N2CCN(c3ccccc3)CC2)SC1=S 56.2 µM [inhibitor, partial curve]
CN(C)CCCN(C(=O)c1ccc2c(c1)CCCC2)c1nc2ccc(F)cc2s1 28.2 µM [inhibitor, full curve]
CCc1cccc(NC(=S)N(CCCN2CCOCC2)C(C)c2cc3cccc(OC)c3o2)c1 (stereo unspecified) 50.1 µM [inhibitor, partial curve]
CCOc1ccccc1/C=N/n1c(COc2ccccc2)n[nH]c1=S 56.2 µM [inhibitor, partial curve]
Cc1ccc(C2CCN(C(=O)c3cnn(-c4ccccc4Cl)c3C3CCN(C(=O)OC(C)(C)C)CC3)C2)cc1 (stereo unspecified) 56.2 µM [inhibitor, partial curve]
COc1cc(OC)c(C2C=C(C(=O)O)Nc3ncnn32)cc1OC (stereo unspecified) 44.7 µM [inhibitor, partial curve, poor fit]
COc1ccc(-c2ccc3c(c2)S(=O)(=O)c2cccc(C(=O)NCCOc4ccccc4Cl)c2C3=O)cc1OC 2 µM [inhibitor, full curve]
COCCCN1C(=O)C(=O)/C(=C(/O)c2ccc(C)cc2)C1c1ccccc1 (stereo unspecified) 79.4 µM [inhibitor, single point]
CCC(C)Sc1cc(-c2nc3ccc(Cl)cn3c2NC2CCCCC2)ccc1OC (stereo unspecified) 79.4 µM [inhibitor, single point]
CCOC(=O)c1ccc2c(c1)[nH]c(=S)n2CC 39.8 µM [inhibitor, single point]
COc1ccc(OC)c(NC(=O)CN2C(=O)CC(c3ccco3)Sc3ccccc32)c1 (stereo unspecified) 44.7 µM [inhibitor, partial curve]
CCN(C[C@H]1N[C@@](C)(C(=O)OC)[C@H]2C(=O)N(Cc3ccccc3)C(=O)[C@@H]12)C(=O)C1CCCCC1 89.1 µM [inhibitor, partial curve]
O=C(NC(=S)N1CCCc2ccccc21)c1ccc(Cl)cc1 89.1 µM [inhibitor, partial curve]
C[C@]12c3[nH]c4ccc(Cl)cc4c3CCN1C(=O)[C@@H](CC(=O)NCc1ccco1)C[C@@H]2C(=O)N1CCCCC1 50.1 µM [inhibitor, partial curve]
COc1ccccc1N1CCN(/N=C/c2cc(OC)c(OC)c(OC)c2)CC1 50.1 µM [inhibitor, partial curve]
N=c1c2c(ccn1Cc1ccccc1)Oc1ccc3ccccc3c1C2c1ccccc1 (stereo unspecified) 3.55 µM [inhibitor, full curve]
O=C(CSc1nc(C(F)(F)F)cc(=O)[nH]1)Nc1nccs1 39.8 µM [inhibitor, partial curve]
C=CCn1c(O)c(N=NC(=O)CNC(=O)/C=C/c2ccco2)c2ccccc21 56.2 µM [inhibitor, partial curve]
Cc1cc(OCC(=O)Nc2ccc(N3CCCC3)cc2)cc(C)c1Cl 89.1 µM [inhibitor, partial curve]
Brc1c(-c2ccccc2)nc2n1Cc1ccccc1-2 28.2 µM [inhibitor, partial curve]
Cc1ccc(C(=O)N/C(=C\c2cccs2)C(=O)NCCc2c[nH]c3ccccc23)cc1C 28.2 µM [inhibitor, full curve]
CCOC(=O)c1cccc(NC(=O)Cn2c(=O)nc(-c3ccccc3)c3ccccc32)c1 89.1 µM [inhibitor, single point]
CN1CCN(/N=C/c2ccc(Cl)c(Cl)c2)CC1 28.2 µM [inhibitor, partial curve]
CCCOc1cccc(C(=O)NC(=S)Nc2ccc(N3CCN(C)CC3)cc2)c1 12.6 µM [inhibitor, partial curve, poor fit]
COc1ccc(S(=O)(=O)N2CCN(c3nc(-c4ccccc4)nc4ccccc34)CC2)cc1 3.55 µM [inhibitor, single point]
O=C(Nn1cnnc1)c1ccccc1-c1ccccc1 89.1 µM [inhibitor, single point]
CCOC(=O)c1cc(-c2ccc(F)cc2)n(CCC(=O)NC2CCN(Cc3ccccc3)CC2)c1C 22.4 µM [inhibitor, single point]
O=c1[nH]c(NNC(=S)NCc2ccccc2)nc2c1C1(CCCCC1)Cc1ccccc1-2 50.1 µM [inhibitor, partial curve]
Cc1cccc(C(=O)OCC(=O)c2csc(N3CCCCC3)n2)c1[N+](=O)[O-] 50.1 µM [inhibitor, partial curve]

Activity change, negative = inhibition, inactive:
COc1ccc(CCC(=O)NCc2cn3ccc(C)cc3n2)cc1 -23.2%
COC(=O)c1cc(NC2c3ncccc3C(=O)N2Cc2ccccc2)cc(C(=O)OC)c1 (stereo unspecified) -14.6%
Cc1ccc(C)c(N(CC(=O)Nc2cc(Cl)ccc2Oc2ccccc2)S(C)(=O)=O)c1 -6.22%
COC(=O)[C@H]1[C@@H](C)N(CCc2cc(OC)c(OC)c(OC)c2)C(=O)N[C@H]1c1ccccc1 -6.43%
COc1ccc2nc(N(CCN(C)C)C(=O)/C=C/c3cccs3)sc2c1 -27.4%
O=C(c1ccc2c(c1)OCO2)c1cn(Cc2ccc(F)cc2)c2ccccc2c1=O -22.6%
COCCCNc1ncnc2c1c(-c1ccccc1)cn2-c1ccc(C)c(Cl)c1 -17.1%
COc1cc2c(cc1OC)C(/C(C#N)=N\O)=NC(C)(C)C2 -16.4%
Cc1nn(-c2ccccc2)c(OC(=O)c2ccc(Br)cc2)c1S(=O)(=O)c1ccccc1 -36%
CCc1ccc(NC(=O)CSC2=Nc3ccccc3C3=NC(CCC(=O)NCc4ccccc4OC)C(=O)N23)cc1 (stereo unspecified) -15.3%
Cc1nn(CC(=O)NCCC2=CCCCC2)c(C)c1S(=O)(=O)N(C)C -14.9%
[O-]/[N+](=C\c1ccncc1)c1ccccc1 -8.97%
COc1ccc(C(=O)Nc2ccc(OCC(=O)N3CCOCC3)cc2)c(OC)c1OC -14.3%
C=CCNC(=O)Cc1ccc(S(=O)(=O)N2CCOCC2)s1 -11%
N#CCCNC(=O)CCN1CCCCC1 -6.79%
C/C(Cl)=C\COc1cc(C)nc2c(Br)cccc12 133%
Cc1c(Cl)cccc1-c1ccc(C(=O)N2CCN(c3ccc([N+](=O)[O-])cc3)CC2)o1 -23.6%
Nc1c(C(=O)Nc2ccc(Cl)cc2)sc2nc(N3CCOCC3)c3c(c12)CCCC3 -18.7%
O=C(NCCS(=O)(=O)NCc1ccc(F)cc1)c1ccc2c(c1)OCO2 10.7%
Nc1c(N(CCC2=CCCCC2)C(=O)c2ccco2)c(=O)[nH]c(=O)n1Cc1ccccc1 -24.8%
Cc1sc2nc(SCC(=O)NCCO)n(C)c(=O)c2c1C -3.7%
